Measurements from a compilation of properties of binary mixtures (doi:10.1016/s1004-9541(08)60072-5).
The densities may have been worked out from excess volumes.

Test: xn = mol fraction of the nth substance listed
Conditions: 101 kPa

## CCCC[n+]1ccn(C)c1.F[P-](F)(F)(F)(F)F + CN(C)C=O
293.15 K, x2 = 0
  mass density: 1368.9 kg/m3
293.15 K, x2 = 0.1002
  mass density: 1349.3 kg/m3
293.15 K, x2 = 0.2
  mass density: 1329.8 kg/m3
293.15 K, x2 = 0.3002
  mass density: 1309.5 kg/m3
293.15 K, x2 = 0.5
  mass density: 1262.8 kg/m3
293.15 K, x2 = 0.6
  mass density: 1224.4 kg/m3
293.15 K, x2 = 0.7
  mass density: 1181.9 kg/m3
293.15 K, x2 = 0.7999
  mass density: 1129.2 kg/m3
293.15 K, x2 = 0.8999
  mass density: 1055 kg/m3
298.15 K, x2 = 0
  mass density: 1363.5 kg/m3
298.15 K, x2 = 0.1002
  mass density: 1345.4 kg/m3
298.15 K, x2 = 0.2
  mass density: 1325.6 kg/m3
298.15 K, x2 = 0.3002
  mass density: 1305.3 kg/m3
298.15 K, x2 = 0.3999
  mass density: 1285.6 kg/m3
298.15 K, x2 = 0.5
  mass density: 1258.6 kg/m3
298.15 K, x2 = 0.6
  mass density: 1220 kg/m3
298.15 K, x2 = 0.7
  mass density: 1177.8 kg/m3
298.15 K, x2 = 0.7999
  mass density: 1124.7 kg/m3
298.15 K, x2 = 0.8999
  mass density: 1050.5 kg/m3
303.15 K, x2 = 0
  mass density: 1359.2 kg/m3
303.15 K, x2 = 0.1002
  mass density: 1340.9 kg/m3
303.15 K, x2 = 0.2
  mass density: 1321.3 kg/m3
303.15 K, x2 = 0.3002
  mass density: 1300.8 kg/m3
303.15 K, x2 = 0.3999
  mass density: 1281.2 kg/m3
303.15 K, x2 = 0.5
  mass density: 1254.1 kg/m3
303.15 K, x2 = 0.6
  mass density: 1215.5 kg/m3
303.15 K, x2 = 0.7
  mass density: 1173.2 kg/m3
303.15 K, x2 = 0.7999
  mass density: 1120.1 kg/m3
303.15 K, x2 = 0.8999
  mass density: 1045.7 kg/m3
308.15 K, x2 = 0
  mass density: 1355.5 kg/m3
308.15 K, x2 = 0.1002
  mass density: 1336.7 kg/m3
308.15 K, x2 = 0.2
  mass density: 1317 kg/m3
308.15 K, x2 = 0.3999
  mass density: 1276.9 kg/m3
308.15 K, x2 = 0.5
  mass density: 1249.8 kg/m3
308.15 K, x2 = 0.7999
  mass density: 1115.4 kg/m3
308.15 K, x2 = 0.8999
  mass density: 1040.9 kg/m3
313.15 K, x2 = 0
  mass density: 1352 kg/m3
313.15 K, x2 = 0.1002
  mass density: 1332.3 kg/m3
313.15 K, x2 = 0.2
  mass density: 1312.7 kg/m3
313.15 K, x2 = 0.3002
  mass density: 1292.3 kg/m3
313.15 K, x2 = 0.3999
  mass density: 1272.3 kg/m3
313.15 K, x2 = 0.5
  mass density: 1245.3 kg/m3
313.15 K, x2 = 0.6
  mass density: 1206.7 kg/m3
313.15 K, x2 = 0.7
  mass density: 1164.3 kg/m3
313.15 K, x2 = 0.7999
  mass density: 1111 kg/m3
313.15 K, x2 = 0.8999
  mass density: 1036.3 kg/m3
318.15 K, x2 = 0.1002
  mass density: 1328.3 kg/m3
318.15 K, x2 = 0.3002
  mass density: 1288.1 kg/m3
318.15 K, x2 = 0.3999
  mass density: 1268.3 kg/m3
318.15 K, x2 = 0.5
  mass density: 1241.1 kg/m3
318.15 K, x2 = 0.7
  mass density: 1159.9 kg/m3
318.15 K, x2 = 0.7999
  mass density: 1106.5 kg/m3
318.15 K, x2 = 0.8999
  mass density: 1031.8 kg/m3

## CN(C)C=O + CCCC[n+]1ccn(C)c1.F[P-](F)(F)(F)(F)F
293.15 K, x1 = 1
  mass density: 949.1 kg/m3
298.15 K, x1 = 1
  mass density: 944.9 kg/m3
308.15 K, x1 = 1
  mass density: 935.5 kg/m3
313.15 K, x1 = 1
  mass density: 930.7 kg/m3
318.15 K, x1 = 1
  mass density: 925.9 kg/m3
